Whole data set: some 33,000 sequences, median “E-score (-0.5 to 0.5)” near -0.021, cut for the highest 2% near 0.32. The list shows a part of the results.
Molecular target: T1, Zap1 (UniProt P47043)
T1 sequence: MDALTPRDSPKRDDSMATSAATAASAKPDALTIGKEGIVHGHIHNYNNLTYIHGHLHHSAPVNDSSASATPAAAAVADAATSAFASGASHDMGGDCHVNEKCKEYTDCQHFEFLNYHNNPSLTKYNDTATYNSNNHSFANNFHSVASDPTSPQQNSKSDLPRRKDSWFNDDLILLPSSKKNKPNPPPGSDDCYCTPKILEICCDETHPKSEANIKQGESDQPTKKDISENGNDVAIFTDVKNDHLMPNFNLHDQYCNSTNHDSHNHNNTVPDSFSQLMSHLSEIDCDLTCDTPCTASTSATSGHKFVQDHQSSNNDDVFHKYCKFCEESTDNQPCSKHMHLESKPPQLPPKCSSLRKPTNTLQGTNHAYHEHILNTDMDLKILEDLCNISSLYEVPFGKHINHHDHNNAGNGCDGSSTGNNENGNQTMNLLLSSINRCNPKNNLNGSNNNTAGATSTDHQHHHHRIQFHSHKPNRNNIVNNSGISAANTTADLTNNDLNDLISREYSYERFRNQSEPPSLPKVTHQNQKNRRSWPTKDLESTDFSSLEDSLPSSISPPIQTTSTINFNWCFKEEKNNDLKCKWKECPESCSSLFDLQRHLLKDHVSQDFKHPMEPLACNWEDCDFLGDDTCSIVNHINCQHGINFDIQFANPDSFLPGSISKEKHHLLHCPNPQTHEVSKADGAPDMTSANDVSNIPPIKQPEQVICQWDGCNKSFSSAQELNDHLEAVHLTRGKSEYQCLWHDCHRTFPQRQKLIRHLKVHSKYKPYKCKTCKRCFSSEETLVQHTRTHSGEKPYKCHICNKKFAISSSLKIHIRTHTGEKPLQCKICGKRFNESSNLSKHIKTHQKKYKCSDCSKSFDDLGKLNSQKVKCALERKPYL
Test: PBM E-score (8-mer binding enrichment) (E-score (-0.5 to 0.5)); higher = stronger / more preferred TF binding; most listed sequences are background and not binding sites
Settings: protein concentration: 200 nM; construct: GST-full length
In short: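 Detection of bound protein used fluorescent anti-GST, with scans normalised by masliner. The proteins were GST-tagged yeast transcription factors applied at about 100-200 nM to universal all-10-mer Agilent arrays made double-stranded by primer extension. Each ungapped eight-base word, pooled with its reverse complement, was scored with an E-score from the Universal PBM Analysis Suite.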

Sequence	PBM E-score
TAGCCGGA	-0.112
GACGCCAA	0.0748
AACGACAG	-0.168
GAAGAGTA	-0.0467
CGGGAACA	0.0194
AAATAGAG	0.0432
CCAAGCTA	-0.0368
ATCTCAAA	0.0922
ACACTGAA	0.111
GCGACAAA	0.148
GACTCCAA	-0.0824
TGTGGCAA	0.0137
CATGGGAG	0.0124
CAAGACTA	-0.1
GATATCAA	0.0972
GAACTGCA	-0.0204
CGCGGTAG	0.122
CCTGACCA	0.299
GCTACAGA	-0.283
CAGACTTA	-0.218
AACATACC	0.18
TCTCCGAA	-0.174
AGATTGAA	-0.0374
TCATACCA	0.199
ACAGGATA	0.0473

Sequence	PBM E-score
GCGGTAAA	0.165
ACCTCCCC	0.0726
CCCGCCCG	0.108
ACGCTCCA	-0.177
ATACCTCC	-0.0021
GCAATCGC	-0.263
ATCTGATA	-0.0479
ATTGTCTA	0.092
CGTAGGCA	-0.237
AATGGCTC	0.00497
CCACAATA	0.12
CTAATTGA	0.0435
GCTCGTTA	-0.162
ATAACAAC	0.196
ATATTAAC	0.135
CTCGGACA	-0.00772
GCATACCC	0.344
CTCTGCCA	-0.302
CAAACGTC	-0.123
CCTAACTC	0.196
AGTGCTTC	-0.0649
GGGATGAA	-0.247
AAAACTTC	0.0875
GAAGGTGA	0.116
ACTACTGA	-0.116

Sequence	PBM E-score
AGCATTAC	-0.0711
ATCGCCTC	-0.0367
ATAAACCA	0.121
AAAGTATC	0.0665
ACTGCCGG	-0.183
TGCCTGAA	-0.173
AATCTCCG	-0.158
AGGAATAG	0.00775
ACTCACAG	0.0312
CTCCGATC	-0.227
CTCGGCCC	-0.27
GCTGGAAA	-0.0229
GAGGCATA	0.00151
CATTTCAA	0.191
CGCGAACG	0.00565
AGCTGACC	0.182
CGGCCTCC	0.0208
GAATAGGC	0.09
AAACGATC	0.0567
AAGGCCGA	-0.022
ACCTACGC	-0.0407
AGTAACAT	-0.0738
ATGGACGC	0.017
AGACGTAG	-0.138
GATCCTCA	0.112

Sequence	PBM E-score
AGGGCACA	-0.0726
AGCATGAT	-0.153
GGGATCCC	0.0219
ATGCCAGC	-0.131
CAGTCTCA	-0.0911
CACGGCTC	-0.115
GCGTACAA	-0.105
ACTATGCG	-0.141
AGCATGAA	-0.0231
AATGGTCT	0.0159
ATGACCTC	0.442
CTCGCATC	-0.0763
ACTCAGCG	-0.0722
GGGCAAGA	-0.034
GATTAGAA	-0.0774
CTATGTTA	0.111
CTTCAGAC	-0.136
CCGTTTAC	-0.0252
CATGTACA	-0.119
AGGGGAAA	-0.232
AACTGCGC	-0.0727
CCGTGACG	-0.0247
AATTGGCG	-0.0809
GTAGCCAC	-0.0136
GATGATGA	-0.133

Sequence	PBM E-score
CAACGTCC	-0.206
AAGATTTG	-0.0267
AAGATTGT	0.00389
ATTACTCC	-0.0197
AAGATATC	0.0829
CAACTAGA	0.0471
GAGTAGGA	-0.289
CTATTTGC	-0.163
CCTCGTTA	0.13
GTCAAATA	0.0381
GCGGCTTA	-0.217
CTTATATA	0.27
AAATTACA	0.0308
CGCACTTC	-0.0939
AGTTTCTA	0.00207
GCCGAGAA	-0.0434
CTTTCAGC	-0.125
AGTGCGCC	-0.18
TCGATTAA	0.15
AACCCCTT	0.38
CGGCTATA	-0.115
CTCCAAAA	0.0984
GACTCGAC	-0.257
CTTACCTA	0.123
CAAGCACC	-0.129

Sequence	PBM E-score
CATGGAGG	0.00108
ACCACACG	0.135
GCCTGGTA	-0.125
CTAGCGCC	-0.284
GGTCTAAC	0.145
GCTGTTAC	-0.104
AAGTGTGC	-0.127
CACTACCA	0.22
AACCAACT	0.228
GTAGAGAC	-0.104
ACATAACC	0.454
ATTTGGTC	0.108
ACGCATCC	-0.193
CCTTTTGA	0.174
CAGCGTGG	-0.204
CCGATCTC	-0.214
CGGTACAG	0.12
CGGTTAAG	0.289
AAGGACCT	0.199
AGTGAATC	-0.106
GCAAGAGC	-0.15
GAATCCCC	-0.0776
CACATCCG	-0.0128
GCCAGTCA	-0.207
ACTCAGTC	-0.234

Sequence	PBM E-score
CGATGACG	-0.313
AGCATAAT	0.0818
GCCCTCTA	-0.245
CAGTTACA	-0.0085
AAAACATG	0.208
GCAGGGCA	-0.104
ACGCTCAG	0.0359
CTCTCGAC	-0.0216
GCGATTCA	-0.185
AGCTGATC	-0.0986
AGTAGTAA	0.015
CGACGGGA	-0.111
AGGGACCG	-0.17
AGATATCG	-0.0652
CACTGTGA	0.1
CTCTTGAA	-0.0501
AATTAGAC	0.18
ATGACTAG	-0.239
ATCCGGCA	-0.276
AGGAGCGA	-0.23
ATTGGTCA	0.303
TACGCAAA	0.0757

Source: the supplement of paper PMC3334620
